# Experimental data: the supplement of paper PMC8728848
# Some of the results follow.
# Assays:
# Assay in all cases: glycan array binding signal (z-score within array); higher = stronger binding
# Conditions in all cases: glycan notation: IUPAC condensed, linker removed
# [1] = biological target: Fuc(a1-2)[GalNAc(a1-3)]Gal(b1-3)GlcNAc(b1-6)GalNAc
# In short: (§1)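 The binding signal is a Z-score computed within each array. Data were drawn from 3228 arrays in the Consortium for Functional Glycomics database, restricted to those with a known protein sequence. Scores were averaged over arrays of the same protein sequence at different concentrations or buffers, and over linkers, and negative values can be taken as non-binding.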
# [2] = biological target: Fuc(a1-2)[GalNAc(a1-3)]Gal(b1-4)Glc
# In short: as §1
# [3] = biological target: Fuc(a1-2)[GalNAc(a1-3)]Gal(b1-4)GlcNAc
# In short: as §1
# [4] = biological target: Fuc(a1-2)[GalNAc(a1-3)]Gal(b1-4)GlcNAc(b1-2)Man
# In short: as §1
# [5] = biological target: Fuc(a1-2)[GalNAc(a1-3)]Gal(b1-4)GlcNAc(b1-2)Man(a1-3)[Fuc(a1-2)[GalNAc(a1-3)]Gal(b1-4)GlcNAc(b1-2)Man(a1-6)]Man(b1-4)GlcNAc(b1-4)GlcNAc
# In short: as §1
# [6] = biological target: Fuc(a1-2)[GalNAc(a1-3)]Gal(b1-4)GlcNAc(b1-2)Man(a1-3)[Fuc(a1-2)[GalNAc(a1-3)]Gal(b1-4)GlcNAc(b1-2)Man(a1-6)]Man(b1-4)GlcNAc(b1-4)[Fuc(a1-6)]GlcNAc
# In short: as §1
# [7] = biological target: Fuc(a1-2)[GalNAc(a1-3)]Gal(b1-4)GlcNAc(b1-3)Gal(b1-4)GlcNAc
# In short: as §1
# [8] = biological target: Fuc(a1-2)[GalNAc(a1-3)]Gal(b1-4)GlcNAc(b1-3)Gal(b1-4)GlcNAc(b1-3)Gal(b1-4)GlcNAc
# In short: as §1
# [9] = biological target: Fuc(a1-2)[GalNAc(a1-3)]Gal(b1-4)GlcNAc(b1-3)GalNAc
# In short: as §1
# [10] = biological target: Fuc(a1-2)[GalNAc(a1-3)]Gal(b1-4)GlcNAc(b1-3)[Fuc(a1-2)[GalNAc(a1-3)]Gal(b1-4)GlcNAc(b1-6)]GalNAc
# In short: as §1
# [11] = biological target: Fuc(a1-2)[GalNAc(a1-3)]Gal(b1-4)GlcNAc(b1-6)GalNAc
# In short: as §1
# [12] = biological target: Fuc(a1-2)[GalNAc(a1-3)]Gal(b1-4)[Fuc(a1-3)]GlcNAc
# In short: as §1
# [13] = biological target: Fuc(a1-2)[GalNAc(a1-3)]Gal(b1-4)[Fuc(a1-3)]GlcNAc(b1-3)GalNAc
# In short: as §1
# [14] = biological target: Fuc(a1-2)[GalNAc(a1-4)]Gal(b1-4)GlcNAc
# In short: as §1
# [15] = biological target: Fuc(a1-2)[GalNAc(b1-3)]Gal
# In short: as §1
# Fuc(a1-3)GlcNAc = biological target: Fuc(a1-3)GlcNAc
# In short: as §1
# [16] = biological target: Fuc(a1-3)[Gal(b1-4)]Glc6S
# In short: as §1
# [17] = biological target: Fuc(a1-3)[Gal(b1-4)]GlcNAc
# In short: as §1
# [18] = biological target: Fuc(a1-3)[Gal(b1-4)]GlcNAc(b1-2)Man
# In short: as §1
# [19] = biological target: Fuc(a1-3)[Gal(b1-4)]GlcNAc(b1-2)Man(a1-3)[Fuc(a1-3)[Gal(b1-4)]GlcNAc(b1-2)Man(a1-6)]Man(b1-4)GlcNAc(b1-4)GlcNAc
# In short: as §1
# [20] = biological target: Fuc(a1-3)[Gal(b1-4)]GlcNAc(b1-2)Man(a1-3)[Fuc(a1-3)[Gal(b1-4)]GlcNAc(b1-2)Man(a1-6)]Man(b1-4)GlcNAc(b1-4)[Fuc(a1-6)]GlcNAc
# In short: as §1
# [21] = biological target: Fuc(a1-3)[Gal(b1-4)]GlcNAc(b1-3)Gal(b1-3)[Fuc(a1-4)]GlcNAc
# In short: as §1
# [22] = biological target: Fuc(a1-3)[Gal(b1-4)]GlcNAc(b1-3)Gal(b1-4)[Fuc(a1-3)]GlcNAc
# In short: as §1
# [23] = biological target: Fuc(a1-3)[Gal(b1-4)]GlcNAc(b1-3)Gal(b1-4)[Fuc(a1-3)]GlcNAc(b1-3)Gal(b1-4)[Fuc(a1-3)]GlcNAc
# In short: as §1
# [24] = biological target: Fuc(a1-3)[Gal(b1-4)]GlcNAc(b1-3)GalNAc
# In short: as §1
# [25] = biological target: Fuc(a1-3)[Gal(b1-4)]GlcNAc(b1-6)GalNAc
# In short: as §1
# [26] = biological target: Fuc(a1-3)[Gal(b1-4)]GlcNAc(b1-6)[Gal(b1-3)GlcNAc(b1-3)]Gal(b1-4)Glc
# In short: as §1
# [27] = biological target: Fuc(a1-3)[Gal(b1-4)]GlcNAc6S
# In short: as §1
# [28] = biological target: Fuc(a1-3)[Gal3S(b1-4)]Glc
# In short: as §1
# [29] = biological target: Fuc(a1-3)[Gal3S(b1-4)]GlcNAc
# In short: as §1
# [30] = biological target: Fuc(a1-3)[Gal3S(b1-4)]GlcNAc6S
# In short: as §1
# [31] = biological target: Fuc(a1-3)[GalNAc(b1-4)]GlcNAc
# In short: as §1
# [32] = biological target: Fuc(a1-3)[GalNAc(b1-4)]GlcNAc6S
# In short: as §1
# Fuc(a1-4)GlcNAc = biological target: Fuc(a1-4)GlcNAc
# In short: as §1
# Fuc(b1-3)GlcNAc = biological target: Fuc(b1-3)GlcNAc
# In short: as §1
# Gal(a1-2)Gal = biological target: Gal(a1-2)Gal
# In short: as §1
# Gal(a1-3)Gal = biological target: Gal(a1-3)Gal
# In short: as §1
# Gal(a1-3)Gal(b1-3)GlcNAc = biological target: Gal(a1-3)Gal(b1-3)GlcNAc
# In short: as §1
# [33] = biological target: Gal(a1-3)Gal(b1-3)GlcNAc(b1-2)Man
# In short: as §1
# [34] = biological target: Gal(a1-3)Gal(b1-3)GlcNAc(b1-2)Man(a1-3)[Gal(a1-3)Gal(b1-3)GlcNAc(b1-2)Man(a1-6)]Man(b1-4)GlcNAc(b1-4)GlcNAc
# In short: as §1
# [35] = biological target: Gal(a1-3)Gal(b1-3)GlcNAc(b1-3)GalNAc
# In short: as §1
# [36] = biological target: Gal(a1-3)Gal(b1-3)GlcNAc(b1-6)GalNAc
# In short: as §1
# [37] = biological target: Gal(a1-3)Gal(b1-3)[Fuc(a1-4)]GlcNAc(b1-2)Man(a1-3)[Gal(a1-3)Gal(b1-3)[Fuc(a1-4)]GlcNAc(b1-2)Man(a1-6)]Man(b1-4)GlcNAc(b1-4)GlcNAc
# In short: as §1
# Gal(a1-3)Gal(b1-4)Glc = biological target: Gal(a1-3)Gal(b1-4)Glc
# In short: as §1
# Gal(a1-3)Gal(b1-4)GlcNAc = biological target: Gal(a1-3)Gal(b1-4)GlcNAc
# In short: as §1
binder,measurement,setting,value
Epa22 (Candida glabrata) (protein) MGSSHHHHHHSSGLVPRGSHMKRALSSQNPFGYPIGCSPQSTNVIPGLTMELYSYPIVSGTPPNCYDASYVDPEYPRTGYLKRKMIGKSTGVTGSLNYKFSVEKACMVKYGNLPAGYNYNEPLTVSNFTMLLYGYFKPQTSGIHTFFVNADDLLYINFGAGNAFDCCKREDSKFKLGEYVAYDIWHVDSSKNKVSLNLEKDVYYPIRMFFNNIGKDSSLDLSFSVNGAVEHITDFSGYLYSVPDQPDACPAPIGYDTTCK,glycan array binding signal (z-score),[1],-0.371
same,glycan array binding signal (z-score),[2],-0.357
same,glycan array binding signal (z-score),[3],-0.4
same,glycan array binding signal (z-score),[4],-0.359
same,glycan array binding signal (z-score),[5],-0.338
same,glycan array binding signal (z-score),[6],-0.382
same,glycan array binding signal (z-score),[7],-0.308
same,glycan array binding signal (z-score),[8],-0.366
same,glycan array binding signal (z-score),[9],-0.399
same,glycan array binding signal (z-score),[10],-0.342
same,glycan array binding signal (z-score),[11],-0.16
same,glycan array binding signal (z-score),[12],-0.306
same,glycan array binding signal (z-score),[13],-0.315
same,glycan array binding signal (z-score),[14],-0.293
same,glycan array binding signal (z-score),[15],-0.369
same,glycan array binding signal (z-score),Fuc(a1-3)GlcNAc,-0.434
same,glycan array binding signal (z-score),[16],-0.284
same,glycan array binding signal (z-score),[17],-0.377
same,glycan array binding signal (z-score),[18],-0.299
same,glycan array binding signal (z-score),[19],-0.376
same,glycan array binding signal (z-score),[20],-0.317
same,glycan array binding signal (z-score),[21],-0.238
same,glycan array binding signal (z-score),[22],-0.365
same,glycan array binding signal (z-score),[23],-0.397
same,glycan array binding signal (z-score),[24],-0.325
same,glycan array binding signal (z-score),[25],-0.096
same,glycan array binding signal (z-score),[26],-0.273
same,glycan array binding signal (z-score),[27],-0.192
same,glycan array binding signal (z-score),[28],-0.396
same,glycan array binding signal (z-score),[29],-0.286
same,glycan array binding signal (z-score),[30],-0.093
same,glycan array binding signal (z-score),[31],-0.314
same,glycan array binding signal (z-score),[32],-0.362
same,glycan array binding signal (z-score),Fuc(a1-4)GlcNAc,-0.399
same,glycan array binding signal (z-score),Fuc(b1-3)GlcNAc,-0.397
same,glycan array binding signal (z-score),Gal(a1-2)Gal,0.169
same,glycan array binding signal (z-score),Gal(a1-3)Gal,2.38
same,glycan array binding signal (z-score),Gal(a1-3)Gal(b1-3)GlcNAc,2.06
same,glycan array binding signal (z-score),[33],1.14
same,glycan array binding signal (z-score),[34],-0.134
same,glycan array binding signal (z-score),[35],2.62
same,glycan array binding signal (z-score),[36],3.74
same,glycan array binding signal (z-score),[37],-0.16
same,glycan array binding signal (z-score),Gal(a1-3)Gal(b1-4)Glc,2.68
same,glycan array binding signal (z-score),Gal(a1-3)Gal(b1-4)GlcNAc,5.2
